Measurements taken from ChEMBL document CHEMBL1201862, “PubChem BioAssay data set” (2004).
Active and inactive are the calls of the source.

Columns and labels:
cells = assay type: functional, cell-based
Vero = test: cells; assay type: functional; details: Chlorocebus sabaeus
[1] = biological target: T1, Nuclear receptor subfamily 0 group B member 1 (Homo sapiens, UniProt P51843); assay type: functional, cell-based;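 further: HEK293T cells transfected with SF-1 and DAX-1 plus StAR promoter luciferase reporter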
T1 sequence (P51843 whole entry): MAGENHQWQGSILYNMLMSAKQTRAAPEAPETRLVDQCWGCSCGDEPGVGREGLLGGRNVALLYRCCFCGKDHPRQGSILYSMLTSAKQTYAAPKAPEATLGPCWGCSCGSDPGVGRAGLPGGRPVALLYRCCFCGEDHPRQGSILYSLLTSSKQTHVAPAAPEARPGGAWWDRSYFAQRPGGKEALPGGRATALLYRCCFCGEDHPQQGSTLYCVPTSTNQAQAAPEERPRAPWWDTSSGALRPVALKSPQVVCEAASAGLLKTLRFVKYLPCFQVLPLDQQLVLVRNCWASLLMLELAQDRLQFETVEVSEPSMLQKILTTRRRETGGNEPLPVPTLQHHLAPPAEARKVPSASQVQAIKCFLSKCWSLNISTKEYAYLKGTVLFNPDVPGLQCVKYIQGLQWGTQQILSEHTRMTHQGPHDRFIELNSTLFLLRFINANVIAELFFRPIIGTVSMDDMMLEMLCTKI

SMILES: COc1cc2c(c(OC)c1OC)-c1ccc(OC)c(=O)cc1C(N)CC2 (stereo not drawn)
- IC50 (cells): inactive: > 67.6 µM
- CC50 (Vero): active: 0.45 µM
- IC50 [1]: inactive: > 67.6 µM
